Measured values taken from paper PMC8408442.
No constants are given. Whether binding was seen depends on the method and setting. For part of these data: In cells and extracts the contact can be indirect. Some results given as binding are weak or reduced against the parent protein; the word gives no strength. Where a sequence is shown, tags or fusion partners need not be part of it.

T1: BBX18 (yeast two-hybrid fusion) (Arabidopsis thaliana) (UniProt Q9SJU5)
T1 sequence: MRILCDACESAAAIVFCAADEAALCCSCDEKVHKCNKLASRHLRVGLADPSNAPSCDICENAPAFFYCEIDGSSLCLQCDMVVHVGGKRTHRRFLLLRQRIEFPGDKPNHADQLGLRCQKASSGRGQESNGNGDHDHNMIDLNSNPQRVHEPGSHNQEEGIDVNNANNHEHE

T2: BBX19 (yeast two-hybrid fusion) (Arabidopsis thaliana) (UniProt C0SVM5)
T2 sequence: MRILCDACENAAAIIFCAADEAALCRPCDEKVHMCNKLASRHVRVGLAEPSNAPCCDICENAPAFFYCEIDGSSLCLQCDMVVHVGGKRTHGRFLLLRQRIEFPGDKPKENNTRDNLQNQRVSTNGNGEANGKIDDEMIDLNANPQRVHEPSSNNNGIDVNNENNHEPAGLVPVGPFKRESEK

T3: BBX18 with GFP (pCsVMV:GFP-1300 construct, co-immunoprecipitation) (Arabidopsis thaliana) (UniProt Q9SJU5)
T3 sequence: T1 sequence

T4: BBX19 with GFP (pCsVMV:GFP-1300 construct, co-immunoprecipitation) (Arabidopsis thaliana) (UniProt C0SVM5)
T4 sequence: T2 sequence

T5: BBX18 fused to nLUC or cLUC (luciferase complementation) (Arabidopsis thaliana) (UniProt Q9SJU5)
T5 sequence: T1 sequence

T6: BBX19 fused to nLUC or cLUC (luciferase complementation) (Arabidopsis thaliana) (UniProt C0SVM5)
T6 sequence: T2 sequence

B1: LHY (yeast two-hybrid fusion) (protein, UniProt Q6R0H1 1-645)
chain: MDTNTSGEELLAKARKPYTITKQRERWTEDEHERFLEALRLYGRAWQRIEEHIGTKTAVQIRSHAQKFFTKLEKEAEVKGIPVCQALDIEIPPPRPKRKPNTPYPRKPGNNGTSSSQVSSAKDAKLVSSASSSQLNQAFLDLEKMPFSEKTSTGKENQDENCSGVSTVNKYPLPTKQVSGDIETSKTSTVDNAVQDVPKKNKDKDGNDGTTVHSMQNYPWHFHADIVNGNIAKCPQNHPSGMVSQDFMFHPMREETHGHANLQATTASATTTASHQAFPACHSQDDYRSFLQISSTFSNLIMSTLLQNPAAHAAATFAASVWPYASVGNSGDSSTPMSSSPPSITAIAAATVAAATAWWASHGLLPVCAPAPITCVPFSTVAVPTPAMTEMDTVENTQPFEKQNTALQDQNLASKSPASSSDDSDETGVTKLNADSKTNDDKIEEVVVTAAVHDSNTAQKKNLVDRSSCGSNTPSGSDAETDALDKMEKDKEDVKETDENQPDVIELNNRKIKMRDNNSNNNATTDSWKEVSEEGRIAFQALFARERLPQSFSPPQVAENVNRKQSDTSMPLAPNFKSQDSCAADQEGVVMIGVGTCKSLKTRQTGFKPYKRCSMEVKESQVGNINNQSDEKVCKRLRLEGEAST
B2: BBX18 (yeast two-hybrid fusion) (protein, UniProt Q9SJU5 1-172)
chain: T1 sequence
B3: PRR9 (yeast two-hybrid fusion) (protein, UniProt Q8L500 1-468)
chain: MGEIVVLSSDDGMETIKNRVKSSEVVQWEKYLPKTVLRVLLVESDYSTRQIITALLRKCCYKVVAVSDGLAAWEVLKEKSHNIDLILTELDLPSISGFALLALVMEHEACKNIPVIMMSSQDSIKMVLKCMLRGAADYLIKPMRKNELKNLWQHVWRRLTLRDDPTAHAQSLPASQHNLEDTDETCEDSRYHSDQGSGAQAINYNGHNKLMENGKSVDERDEFKETFDVTMDLIGGIDKRPDSIYKDKSRDECVGPELGLSLKRSCSVSFENQDESKHQKLSLSDASAFSRFEESKSAEKAVVALEESTSGEPKTPTESHEKLRKVTSDQGSATTSSNQENIGSSSVSFRNQVLQSTVTNQKQDSPIPVESNREKAASKEVEAGSQSTNEGIAGQSSSTEKPKEEESAKQRWSRSQREAALMKFRLKRKDRCFDKKVRYQSRKKLAEQRPRVKGQFVRTVNSDASTKS
B4: LUX (yeast two-hybrid fusion) (protein, UniProt Q9SNB4 1-323)
chain: MGEEVQMSDYDVSGDGDRVSEWEMGLPSDEDLASLSYSLIPPNLAMAFSITPERSRTIQDVNRASETTLSSLRGGSSGPNTSSSNNNVEEEDRVGSSSPGSDSKKQKTSNGDGDDGGGVDPDSAMAAEEGDSGTEDLSGKTLKRPRLVWTPQLHKRFVDVVAHLGIKNAVPKTIMQLMNVEGLTRENVASHLQKYRLYLKRMQGLTNEGPSASDKLFSSTPVPPQSFQDIGGGGGSSGNVGVPIPGAYGTQQMMQMPVYAHHMGMQGYHHQNHNHDPYHQNHRHHHGAGGNGAFESNPYMMQQNKFGSMASYPSVGGGSANEN
B5: BBX19 (yeast two-hybrid fusion) (protein, UniProt C0SVM5 1-183)
chain: T2 sequence
B6: PRR9-HA (pCsVMV:PRRs-HA-1300 construct, co-immunoprecipitation) (protein, UniProt Q8L500 1-468)
chain: B3 chain
B7: BBX18 fused to nLUC or cLUC (luciferase complementation) (protein, UniProt Q9SJU5 1-172)
chain: T1 sequence
B8: PRR9-nLUC (protein, UniProt Q8L500 1-468)
chain: B3 chain
B9: PRR9-delEAR-nLUC (protein, UniProt Q8L500)
chain: MGEIVVLSSDDGMETIKNRVKSSEVVQWEKYLPKTVLRVLLVESDYSTRQIITALLRKCCYKVVAVSDGLAAWEVLKEKSHNIDLILTELDLPSISGFALLALVMEHEACKNIPVIMMSSQDSIKMVLKCMLRGAADYLIKPMRKNELKNLWQHVWRRLTLRDDPTAHAQSLPASQHNLEDTDETCEDSRYHSDQGSGAQAINYNGHNKLMENGKSVDERDEFKETFDVTMDLIGGIDKRPDSIYKDKSFENQDESKHQKLSLSDASAFSRFEESKSAEKAVVALEESTSGEPKTPTESHEKLRKVTSDQGSATTSSNQENIGSSSVSFRNQVLQSTVTNQKQDSPIPVESNREKAASKEVEAGSQSTNEGIAGQSSSTEKPKEEESAKQRWSRSQREAALMKFRLKRKDRCFDKKVRYQSRKKLAEQRPRVKGQFVRTVNSDASTKS
B10: PRR9-delPR-nLUC (protein, UniProt Q8L500)
chain: MGEIVVLSSDDGMETIKNRVKSSEVVQWEKYLPKTVLRRLTLRDDPTAHAQSLPASQHNLEDTDETCEDSRYHSDQGSGAQAINYNGHNKLMENGKSVDERDEFKETFDVTMDLIGGIDKRPDSIYKDKSRDECVGPELGLSLKRSCSVSFENQDESKHQKLSLSDASAFSRFEESKSAEKAVVALEESTSGEPKTPTESHEKLRKVTSDQGSATTSSNQENIGSSSVSFRNQVLQSTVTNQKQDSPIPVESNREKAASKEVEAGSQSTNEGIAGQSSSTEKPKEEESAKQRWSRSQREAALMKFRLKRKDRCFDKKVRYQSRKKLAEQRPRVKGQFVRTVNSDASTKS
B11: BBX19 fused to nLUC or cLUC (luciferase complementation) (protein, UniProt C0SVM5 1-183)
chain: T2 sequence

target: T1, BBX18 (yeast two-hybrid fusion) (Arabidopsis thaliana); experiment: two-hybrid; yeast two-hybrid; AD (activating domain) and BD (binding domain) fusions; -LW and selective -LWHA medium

binding	Binder
no binding	B1
binds	B2
binds	B3
no binding	B4

target: T2, BBX19 (yeast two-hybrid fusion) (Arabidopsis thaliana); experiment: as above

binding	Binder
no binding	B1
binds	B2
binds	B3
no binding	B4
binds	B5

target: T3, BBX18 with GFP (pCsVMV:GFP-1300 construct, co-immunoprecipitation) (Arabidopsis thaliana); experiment: co-IP; protein extracts of co-infiltrated N. benthamiana leaves, 3 days after infiltration; GFP-Trap magnetic beads, about 1 h at 4°C, washed four times; immunoblot with anti-HA and anti-FLAG

binding	Binder
binds	B6

target: T4, BBX19 with GFP (pCsVMV:GFP-1300 construct, co-immunoprecipitation) (Arabidopsis thaliana); experiment: as above

binding	Binder
binds	B6

target: T5, BBX18 fused to nLUC or cLUC (luciferase complementation) (Arabidopsis thaliana); experiment: split reporter; luciferase complementation (nLUC and cLUC fusions) in transgenic Arabidopsis plants, fusion proteins driven by their own promoters; recombined LUC activity monitored for 72 h with a TopCount luminometer under 12-h:12-h LD and LL

binding	Binder
binds	B7
binds	B8

target: T6, BBX19 fused to nLUC or cLUC (luciferase complementation) (Arabidopsis thaliana); experiment: as above

binding	Binder
binds	B7
binds	B8
binds	B9
no binding	B10
binds	B11
